# Assay results from the supplement of paper PMC3334620.
# Whole data set: some 33,000 sequences, median “E-score (-0.5 to 0.5)” near -0.011, cut for the highest 2% near 0.28. Some of the results follow.
# Biological target: T1, Gcr1 (UniProt P07261)
# T1 sequence: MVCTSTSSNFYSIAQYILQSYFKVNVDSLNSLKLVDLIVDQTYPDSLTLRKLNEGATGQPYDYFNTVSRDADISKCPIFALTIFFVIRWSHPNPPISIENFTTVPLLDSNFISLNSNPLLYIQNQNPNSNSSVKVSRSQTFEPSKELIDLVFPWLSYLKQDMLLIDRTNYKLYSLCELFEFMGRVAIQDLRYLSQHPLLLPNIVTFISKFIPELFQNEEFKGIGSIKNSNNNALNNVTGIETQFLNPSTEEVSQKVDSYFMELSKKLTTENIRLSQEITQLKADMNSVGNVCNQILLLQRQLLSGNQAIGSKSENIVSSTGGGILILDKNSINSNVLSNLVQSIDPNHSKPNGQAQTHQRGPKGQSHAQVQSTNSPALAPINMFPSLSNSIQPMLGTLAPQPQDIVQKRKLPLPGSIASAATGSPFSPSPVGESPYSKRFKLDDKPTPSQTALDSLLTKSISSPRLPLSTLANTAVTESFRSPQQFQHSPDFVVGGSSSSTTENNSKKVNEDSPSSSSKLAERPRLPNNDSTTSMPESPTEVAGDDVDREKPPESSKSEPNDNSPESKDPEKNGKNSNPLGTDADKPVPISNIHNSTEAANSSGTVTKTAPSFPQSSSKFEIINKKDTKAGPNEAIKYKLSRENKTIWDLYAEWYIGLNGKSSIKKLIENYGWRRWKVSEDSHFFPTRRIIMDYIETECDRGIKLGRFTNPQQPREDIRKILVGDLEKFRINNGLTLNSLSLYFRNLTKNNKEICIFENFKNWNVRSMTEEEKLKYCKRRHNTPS
# Assay: PBM E-score (8-mer binding enrichment) (E-score (-0.5 to 0.5)); higher = stronger / more preferred TF binding; most listed sequences are background and not binding sites
# Conditions: protein concentration: 100 nM; construct: GST-full length
# Outline: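 Detection of bound protein used fluorescent anti-GST, with scans normalised by masliner. The proteins were GST-tagged yeast transcription factors applied at about 100-200 nM to universal all-10-mer Agilent arrays made double-stranded by primer extension. Each ungapped eight-base word, pooled with its reverse complement, was scored with an E-score from the Universal PBM Analysis Suite.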
row,Sequence,PBM E-score
1,GTACGTAA,-0.0819
2,AATGCGAA,0.136
3,GATGGATA,0.0193
4,ACCTTACT,-0.0612
5,TAAGGCGA,0.118
6,GGTAAACC,-0.152
7,AATCCAAT,0.191
8,GCCATAAA,0.0512
9,ACTATAGA,0.0257
10,CCATACAG,-0.0185
11,ACCCCTGG,-0.126
12,AATTGAAC,-0.0431
13,GAGCCCCA,0.169
14,AGCGGCAA,0.045
15,ACCACCGG,0.167
16,CACCACTC,0.134
17,ACTCACTC,-0.117
18,CAGCAAGC,-0.311
19,GTCACGCA,-0.111
20,ACCATCTA,-0.14
21,GCCTATGA,-0.0151
22,AGTTCAAG,-0.0913
23,CATTTGCA,0.0561
24,AAGTTGAA,0.0298
25,CCATACTC,0.0592

row,Sequence,PBM E-score
1,ATGTCTCG,-0.104
2,AGAACCTA,0.0206
3,CGAGCTTC,0.371
4,AGCGCGCA,0.0716
5,AATCCCTC,-0.0454
6,GAAGCGCC,0.206
7,TAATATAA,0.135
8,ACTATGCA,0.112
9,TAGCTTAA,-0.228
10,GACGCAAA,0.0943
11,GCTGACTA,-0.0111
12,AGGCATTC,0.0927
13,ACATCTCG,0.0177
14,CCTGCTAG,-0.323
15,AAGGATGC,0.313
16,CCATGCGA,-0.0915
17,CCCGCCCC,-0.00257
18,ATCACTAA,-0.0192
19,AAGAATCC,0.391
20,AATGAGTG,0.0323
21,ATGCGGTC,-0.076
22,CTGATCGC,-0.159
23,AGGTGTAC,-0.199
24,AGTTCCAT,-0.107
25,TATCGTGA,-0.0769

row,Sequence,PBM E-score
1,AAACACCT,0.00912
2,GAGTACCA,0.00288
3,CCTCAATA,0.00834
4,CTACTGAG,-0.0519
5,TCCAAAGA,0.0425
6,ATTACTGA,-0.0681
7,ACGCACCG,0.052
8,CGTTGCGA,-0.113
9,AAGAAAAA,0.164
10,ATGACCTG,-0.134
11,GCGCTGAA,0.00238
12,TTAGACAA,-0.00955
13,GGCGTCTA,0.342
14,GGTTGTGA,-0.197
15,ACGCCCAC,0.099
16,GGACTACC,0.1
17,AAGATGTG,0.169
18,AAAAGACA,0.0152
19,ACGCACTG,-0.0816
20,GCTATTTA,-0.162
21,GAAGCATA,-0.108
22,ATGACGGA,-0.06
23,CATGGAAA,0.00067
24,ACAGCAGG,-0.0307
25,AATCATCA,0.0743

row,Sequence,PBM E-score
1,CCACGCGG,-0.0377
2,CCCATTAA,0.0379
3,GAGTGGGA,0.115
4,ACCGAGAA,-0.0242
5,CTCCTAAC,0.0288
6,CTGTTTAC,-0.0882
7,ACTCTGCC,-0.2
8,CCATAGAC,0.0102
9,GTTATCCA,-0.231
10,CCAGTTAA,0.192
11,AATTCATA,0.0378
12,GAGCGCTA,-0.0096
13,AGTGACAT,-0.0435
14,GCCAGGAA,-0.0468
15,CAAAGCTC,-0.0592
16,CCAAACAG,0.0983
17,GAGTAGAC,0.119
18,AACGTAGG,-0.0478
19,AACACGTA,0.0489
20,GACCGTCC,-0.221
21,ACGAACCA,0.00119
22,CCATTTGC,-0.0113
23,CAGCGAGG,-0.0786
24,AAACGATT,-0.0519
25,GCATCTGA,0.185

row,Sequence,PBM E-score
1,CAAGTAAG,-0.0274
2,GCCTATAC,-0.0323
3,AGATTCCT,0.399
4,GCAGTGCC,-0.192
5,ATATGTCA,0.0665
6,CAAGGTGA,-0.0448
7,ATAACCGA,0.0605
8,TGGAACCA,0.357
9,CGGCAGAA,-0.00941
10,GGTCACGA,-0.138
11,CGCAGCCA,0.365
12,CGCCGAAC,0.0411
13,GTTTGCGA,-0.00846
14,ATGCGTAC,-0.0819
15,TCACAAGA,-0.0185
16,CGCGTTCC,0.125
17,ATTCGACC,-0.0638
18,TGTAATAA,0.101
19,CTGATGAA,-0.0679
20,AACCTGTC,-0.0353
21,ATAGCTCG,0.0541
22,CTACCAGA,0.131
23,ACGACACA,0.051
24,ATAGCCAT,-0.215
25,AGTTGGGA,0.15

row,Sequence,PBM E-score
1,GAGTGAGA,-0.208
2,GTATCCAC,0.0417
3,TTAGCAAA,-0.18
4,AAAGTGCG,0.105
5,TCCATTAA,0.23
6,GCGCCAGA,0.0605
7,TACCGCCA,-0.0256
8,CTCAAAAG,0.258
9,CGTATGCC,-0.0765
10,GACATAGA,-0.155
11,AGAGTTAG,-0.0275
12,CTGTATAA,0.124
13,AGCTTGCG,-0.194
14,AATGTAGA,-0.0445
15,AGCTCTGC,-0.241
16,TGTACAAA,0.121
17,CAATTGGC,-0.0157
18,CCGGAGCA,0.00192
19,ACCGAACA,0.101
20,GCTTGTAC,0.0759
21,ATTCATAG,0.025
22,GCCTTAGA,-0.0411
23,CCTACACC,-0.0615
24,CATATGGA,0.0826
25,GAGCCGAC,0.0489

row,Sequence,PBM E-score
1,CGCCTATA,0.19
2,TGACGCCA,-0.0776
3,AAATTAAT,0.0362
4,AGTCATCG,-0.0672
5,TCGTGTAA,0.257
6,ACTAACCC,0.103
7,GACGGAGA,-0.136
8,ATTGCCCA,-0.263
9,CTGAGAAG,-0.0411
10,CTGCCTTC,-0.103
11,GCTCACCC,0.0421
12,CTTACTAA,-0.112
13,GATGAGAC,-0.00642
14,CGGGTCAG,-0.078
15,CGCGAAAG,-0.0825
16,AGACCTAT,0.0452
17,CCTATTGA,0.00469
18,AAGCCCAT,0.0633
19,AACATCAT,-0.0707
20,AAGGCCAA,-0.218
21,CTCTGAGA,-0.0743
22,GACTCTTA,0.171
